# Data published in the supplement of paper PMC10126150.
# Values marked as one replicate rest on one cluster of the flow cell; about a third of the high ones do not repeat.
# System: ATP
# Experiment: switch fluorescence ratio, 500 uM ATP over buffer (Cy3 cluster intensity, sum of 5 cycles each) (fold (ratio)); higher = stronger signal-on switching upon ATP binding; sequences stand for … in TCGTCGGCAGCGTCAGATGTGTATAAGAGACAGTTTTTTTTTTTTTTTTTTTTTTTTT…TC
# Conditions: aptamer strand: ATP DNA aptamer (quencher-CACCTGGGGGAGTATTGCGGAGGAAGG + anchor), 100 nM annealed; ATP concentration: 500 uM; one replicate
# In short: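 Per cluster, summed Cy3 intensity from the target cycles was divided by that from the buffer cycles to give the fluorescence ratio, then averaged per switch-domain sequence. Clusters outside 100-1000 RFU were excluded. The Cy3-labelled switching-strand clusters, on a modified Illumina MiSeq flow-cell, were annealed to 100 nM quencher-labelled ATP aptamer and imaged in selection buffer, then after 15 min with 500 uM ATP at 22 °C, for five cycles with NaOH stripping and re-annealing between them.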
# 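Further: ATP exposure 15 min at 22 °C before imaging.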
row,Sequence,switch fluorescence ratio
1,TTGATCATAA,1.07
2,CTCTGGTTGC,1.16
3,TGTGGTGTTG,1.02
4,GGGGATTCCG,1.1
5,TCAGAGCAGT,1.57
6,CCTGCGCGT,5.61
7,TACGTGCTCG,1.09
8,GCTAGCGAAC,1.07
9,GGAAGTGAGC,0.984
10,GAAGCCCTTT,0.94
11,TGTCGACGTT,0.998
12,TTCCCAGGGA,1.09
13,GTAGATAGTG,0.989
14,GGGTCAGCAT,1.02
15,GGCCGGGATG,1
16,TCAATTAAGG,1.01
17,AGCCGATCAA,1.02
18,GTCATGTAT,1.02
19,GTTATGCCGC,1.11
20,CAACTCCGTA,1.26
21,CCGGAAGTCG,0.947
22,CAAGACAGTA,0.998
23,CGCGAAAATA,1.01
24,ATTCGGGACT,1
25,ATACGGAGA,1.06
26,TCTAGCGGTT,0.985

row,Sequence,switch fluorescence ratio
1,CAATGGCCAC,0.995
2,CGTAGAGTGC,0.975
3,ATAATGCAAT,1.03
4,AGGGTAGACT,0.964
5,TTTAGTTATA,1.03
6,TGCACTTGGT,1.02
7,GGGTCCTACA,0.967
8,GTTGTTCGTC,0.95
9,TGGATTACGC,1.08
10,TATCTTTACT,0.975
11,ATAACTTGTA,0.971
12,TATATTCAA,0.995
13,GAGTCGGTTG,0.984
14,ATTTTATGGT,1.09
15,GCATTCCACC,1.31
16,GGCCAAGTAT,1.03
17,ATACGCGCGG,0.973
18,TTCGTAGATG,1
19,CCTATGATTA,1.02
20,GCCTTTATCT,0.945
21,CGCATCCAAA,1.08
22,AGCGTCCAGC,1.04
23,AGGCAGCT,1.02
24,ATGATGGCGC,1.02
25,GATGTTTAAC,1.02
26,ACATGGTGAA,0.948

row,Sequence,switch fluorescence ratio
1,GGAGCCTGG,0.974
2,TGAAGGTCCT,1.04
3,GCAGTAGAAG,1.01
4,TATACTTGAC,1.16
5,TATATCGTTT,1.02
6,TTCCATGGAT,0.996
7,CGCTCAGGA,0.965
8,TAACGAGTTT,0.995
9,GAAGTGAGGC,1.06
10,CGTCATCATG,0.982
11,CGGAGGGTCG,1.07
12,TAGGTGGTGG,0.948
13,CATCGCCTTC,1.23
14,CAGACTAGCG,0.969
15,CAGAGGAAAT,1.02
16,GGCTTCACGC,1.06
17,TAGAGAGCTA,1.1
18,GGTCGTGTGC,1.02
19,CACTGTATC,1.32
20,CGGACTTTTA,0.982
21,AAAAAGTCCT,1.03
22,TGCGGAAGGA,1.29
23,GCGATTGCAG,0.993
24,AGCTAATTAG,1.03
25,TAGGTACTTT,1
26,CTGAATCTGT,0.979

row,Sequence,switch fluorescence ratio
1,TGTTCAAGTG,0.969
2,AGGACGAAA,1.11
3,CGCTGAGCGT,0.964
4,GTCGGTGGAT,0.974
5,GCCCCTGCAC,1.03
6,CTGGATCGAG,1.01
7,AGGGGACCTT,1.04
8,GTGCGCCGGC,0.967
9,AGTTATCAGT,1.05
10,GAAGACATTT,0.98
11,AATAGTAGTT,1.03
12,GCTAATGTCT,1.02
13,TATTCACTTA,1.02
14,GCTATCGGCA,1.02
15,CCTTTGAGCC,1.22
16,TGTAAATT,0.983
17,TAAGGGGCTG,1.01
18,AAACTCGTGC,1.06
19,ATGGTTTTCC,1.01
20,TACGTTCTTA,0.984
21,GTTTATTTTA,1.01
22,TTCACACGGC,1.02
23,AACTTAAACG,0.979
24,CTTTCCTTTG,1.05
25,GCTCATTTCA,0.933
26,ATGCCTGAG,1.07

row,Sequence,switch fluorescence ratio
1,TCTCCTAAA,1.3
2,ATTACGGTTG,1.05
3,ACTTTAGACT,1.19
4,CTTAGAAAAT,0.958
5,AGTAGATTTC,1
6,GCACCGCGTC,1.39
7,AAACTTCCAA,1.1
8,AACTAAATAT,1.02
9,ACATCATAAT,1.01
10,GCTCTAGCTG,1.03
11,TTAAGCGCA,1.03
12,AGAATACGGT,1.03
13,CGCGAGCGCC,1.05
14,ACGTGAACGC,1.09
15,TTTCGTAACG,1.03
16,ACGCCGAAGA,1.06
17,CGCCCTAAAC,1.72
18,CATCGGTGAC,1.06
19,ACGTCCTTCA,1.34
20,CGGGGCCGG,0.947
21,AACCTCAGCA,2.12
22,CTCGTACTAT,1.06
23,AAGACCAGCG,1.01
24,CGGGCTGATC,0.984
25,AGTAACGGGG,0.98
26,TTCTCGGGCG,0.965

row,Sequence,switch fluorescence ratio
1,TTTGGTCGCC,0.951
2,GGCGATGTAC,1.15
3,CCTGTAGTTC,1.08
4,TGTGTATACG,0.962
5,ATTAAGCCTA,1.02
6,GCCGTGAGGT,1.01
7,CAAAATATAC,2.4
8,TTAGTGACAC,1.02
9,TAAGCAATGA,2.83
10,CGTCTGTCCA,1.01
11,GCTTTATGGC,0.945
12,GCTTAAATAA,1
13,CTCCTCGGAA,2.52
14,GGTAAATCCG,1.03
15,TTTGAGAGGG,0.991
16,CCCCCTAACT,1.08
17,GCCAACCGTA,0.991
18,TGGGTGCGAA,0.986
19,TCGTAAGGT,1.05
20,AACAGCTAGG,1
21,CCCCTAACTC,1.17
22,CGAGCGTCTT,1.06
23,AGCAGATTTT,1.06
24,AAATACGGTA,1.21
25,GAAGCCCCTC,1.05
26,TGTAGGTTTT,1.02

row,Sequence,switch fluorescence ratio
1,TGCGAACCGG,1.03
2,AGTTTGAACA,1.05
3,TGCCCCCCAT,1.01
4,GGCAGCTCTG,1.02
5,TGTAAAGACG,0.908
6,GAGACGTTTA,1.06
7,TTATCGTGGG,1.03
8,TTGATACTTA,0.96
9,AATAAGTCGG,1
10,GCACCTGT,1.01
11,ATTGATCTCA,0.98
12,GTAATACTCA,3.83
13,ACATTGTTGG,1.06
14,TTACTTAGTT,1.06
15,ATTCACAAGC,1.03
16,TGCGAGATGG,0.954
17,CAGGACGTAT,1.12
18,GCGGGGGCCG,0.959
19,GAAGGAGAAA,1
20,TTGCAATGTA,1.12
21,AACAACCGAT,1.07
22,CGGCACTAGG,1.04
23,TCCATAAGCT,0.956
24,CAATTACACT,1.03
25,TCTATTCAAC,0.997
26,TAGTGTTCCT,0.989

row,Sequence,switch fluorescence ratio
1,TGTGGGGTTA,1.01
2,GAGAGGGCGA,1.01
3,ATCGATAGCG,0.95
4,TTTGTTCCG,1.03
5,TGTCCACCTC,0.997
6,CGTCCAAGCG,1.07
7,CTTCCCCGAA,4.22
8,CCCAGTGCGG,1.13
9,AATAAAGTGC,0.974
10,AGATATGCCC,1
11,AGGGCAAGC,1.34
12,CGATCGTCAA,3.51
13,AGAATAAGCA,1.06
14,CGTGAGGATG,1
15,TATTTACAAT,1.04
16,GATCGGTTGC,1.01
17,TTATGTCTCT,1
18,TGAGAGGCTA,0.97
19,TCGGTACAGC,1
